# According to PMC4336329 (PLoS ONE, 2015):
# In all, about 310,000 compounds went through this assay and about 14,000 (4.5%) showed an effect of 50% or more. Effects have a minus sign here. Some of the results follow.
# Target: human ether-à-go-go-related gene (hERG) potassium channel (human, UniProt Q12809)
# Experiment: primary screen, population patch clamp on CHO cells stably expressing hERG
# 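Note: peak tail current of the secondary pulse compared with the same well before compound.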
# Chain of human ether-à-go-go-related gene (hERG) potassium channel (Q12809 whole entry, looked up): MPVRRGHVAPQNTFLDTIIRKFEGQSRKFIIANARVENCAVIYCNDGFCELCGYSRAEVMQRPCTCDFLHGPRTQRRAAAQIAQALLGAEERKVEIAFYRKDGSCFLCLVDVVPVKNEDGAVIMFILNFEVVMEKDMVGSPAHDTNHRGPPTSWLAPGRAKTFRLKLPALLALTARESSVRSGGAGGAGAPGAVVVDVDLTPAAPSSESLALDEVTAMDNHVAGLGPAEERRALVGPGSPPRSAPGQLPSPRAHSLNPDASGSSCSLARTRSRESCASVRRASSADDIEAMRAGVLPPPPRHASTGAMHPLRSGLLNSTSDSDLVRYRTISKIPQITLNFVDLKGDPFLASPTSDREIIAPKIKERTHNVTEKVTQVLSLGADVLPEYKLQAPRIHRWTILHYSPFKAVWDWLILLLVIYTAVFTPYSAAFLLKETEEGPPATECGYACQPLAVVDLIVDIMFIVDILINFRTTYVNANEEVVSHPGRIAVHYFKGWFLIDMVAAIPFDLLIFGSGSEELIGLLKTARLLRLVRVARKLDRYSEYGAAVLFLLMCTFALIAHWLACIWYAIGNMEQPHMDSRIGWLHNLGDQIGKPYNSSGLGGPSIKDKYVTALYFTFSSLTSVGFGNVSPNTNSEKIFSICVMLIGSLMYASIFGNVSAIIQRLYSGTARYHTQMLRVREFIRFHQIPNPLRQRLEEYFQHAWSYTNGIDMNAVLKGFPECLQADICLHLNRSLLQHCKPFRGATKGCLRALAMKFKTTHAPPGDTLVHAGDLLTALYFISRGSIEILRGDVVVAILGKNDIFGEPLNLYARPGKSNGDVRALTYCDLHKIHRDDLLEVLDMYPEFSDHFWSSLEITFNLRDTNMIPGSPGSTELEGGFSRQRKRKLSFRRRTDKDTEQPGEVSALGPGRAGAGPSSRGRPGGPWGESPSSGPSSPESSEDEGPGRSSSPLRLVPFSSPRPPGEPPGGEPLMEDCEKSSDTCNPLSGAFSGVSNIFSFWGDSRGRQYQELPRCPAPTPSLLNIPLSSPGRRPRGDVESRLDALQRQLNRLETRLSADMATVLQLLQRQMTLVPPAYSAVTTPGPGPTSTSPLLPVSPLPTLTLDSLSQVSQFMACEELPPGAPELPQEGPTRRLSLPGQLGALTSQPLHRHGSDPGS
row,Compound,"hERG current change (%, negative = inhibition) at 10uM"
1,O=C(Nc1ccc2c(c1)OCO2)C1CCN(Cc2cnn(-c3ccccc3)c2-n2cccc2)CC1,-32.3%
2,O=C(NC(c1ccccc1)c1ccccc1)C1(c2cccs2)CCOCC1,16.7%
3,COc1ccccc1Nc1ncnc2ccc(C)cc12,5.54%
4,CCn1c(=O)c2c(n3c(=S)[nH]nc13)-c1ccccc1CC21CCCCC1,-27.4%
5,CN(CC(=O)OCC(N)=O)S(=O)(=O)c1ccc(Cl)cc1,33.6%
6,COc1cc(C2NCCc3c2[nH]c2ccccc32)ccc1OC(C)C.Cl (stereo not drawn),-23.3%
7,O=C(/C=C/c1cn(CC(O)CN2CCCCC2)c2ccccc12)c1cccs1 (stereo not drawn),-54.4%
8,CN(C(=O)c1ccccc1Cl)c1ccccc1C(=O)NCCc1ccccc1,-8.14%
9,COc1cccc(OC)c1C(=O)OCCCOC(=O)c1c(OC)cccc1OC,10.9%
10,Oc1c(Br)cc(Br)cc1C=NCc1ccc(F)cc1,5.63%
11,Cc1n[nH]c(=O)c2c(NC(=O)COC(=O)Cc3ccc(Cl)cc3Cl)oc(C)c12,-34.3%
12,O=C(COc1cccc2ccccc12)N/N=C/C=C/c1ccccc1,0.837%
13,COc1ccc(NC(=O)CSc2ccccc2)c(OC)c1,2.29%
14,COCCNC(=O)C1CCCN(S(=O)(=O)c2cccc3nsnc23)C1 (stereo not drawn),25.2%
15,O=c1[nH]c(=O)n(CCC2=CCCCC2)c(O)c1C=NC1CCN(Cc2ccccc2)CC1,-58.6%
16,CCNC(=O)NC(=O)C(C)OC(=O)c1cccn1C (stereo not drawn),16%
17,CCOC(=O)c1c(NC(=S)NCc2ccccc2)sc2c1CCN(C(=O)OCC)C2,32.8%
18,Cn1nc(-c2ccc(C(=O)O)cc2)c2ccccc2c1=O,11.6%
19,Cc1ccc(NCCC(=O)c2ccccc2)cc1Cl,3.32%
20,CCN(c1ccccc1)S(=O)(=O)c1ccc(OC)c(NC(=O)Cn2cnc3c2c(=O)n(C)c(=O)n3C)c1,-66%
21,COc1ccc(NC(=O)CSc2nnc(C)n2Cc2ccccc2)cc1,3.14%
22,C/C(=N\NC(=O)c1cc(-c2ccc(Br)s2)[nH]n1)c1ccncc1,11.1%

row,Compound,"hERG current change (%, negative = inhibition) at 10uM"
1,Cc1ccc(S(N)(=O)=O)cc1NC(=O)/C=C/c1ccc2c(c1)OCO2,17%
2,CCOC(=O)c1cnc2ccc(Cl)cc2c1Nc1ccc(S(=O)(=O)Nc2ncccn2)cc1,-23.1%
3,O=C(O)C1CCC(=O)N1C1c2ccccc2Oc2ccccc21 (stereo not drawn),0.874%
4,CN(NC(=O)COc1ccccc1)c1ccccc1,4.06%
5,CCN1CCC(NCC2CCCCC2)CC1,14.5%
6,CC(C)Sc1nc2ccccc2n1CC(N)=O,8.26%
7,COc1ccccc1C(=O)NNC(=O)C12CC3CC(CC(C3)C1)C2,14.9%
8,Clc1nc(NCCN2CCOCC2)nc(NCc2ccccc2)n1,-8.87%
9,Cc1ccnc(N2C(=O)c3ccccc3C2Nc2ccccc2Cl)c1 (stereo not drawn),13.2%
10,Cc1ccccc1NC(=S)c1ccc2ccccc2n1,21.2%
11,COc1ccc(OCCCNCCc2ccccc2)cc1.O=C(O)C(=O)O,-57%
12,COc1ccc(-c2nn(CCC#N)cc2C(=O)Nc2ccccc2Cl)cc1,4.18%
13,Cn1cnnc1SCc1ccc(C(=O)N=Nc2c(O)n(Cc3ccc(Cl)cc3)c3ccccc23)cc1,0.99%
14,Cc1ccc(S(=O)(=O)NC(C)C(=O)NC(C)c2cccs2)cc1 (stereo not drawn),13.4%
15,N/C(=N/OC(=O)c1ccccc1Cl)c1nonc1N,-18.9%
16,CCC(C)n1c(SCc2ccc([N+](=O)[O-])cc2)nc2ccsc2c1=O (stereo not drawn),-11.6%
17,Cc1ccccc1-c1nnc(SCC#N)o1,6.73%
18,Cc1ccccc1N1C(=O)C(Cl)=C(N2CCOCC2)C1=O,20.7%
19,COc1ccc(OC)c(CCNC(=O)CN2C(=O)COc3ccc(S(=O)(=O)N4CCOCC4)cc32)c1,-5.46%
20,COC(=O)C1=C(c2ccc(F)cc2F)C[C@@H]2CC[C@H]1N2C(=O)NC1CCCCC1,2.47%
21,Clc1ccc(OCc2nc(-c3ccc(Br)o3)no2)cc1,-9.64%
22,Cc1cc(-c2[nH]nc3c2C(c2ccsc2)C(C#N)=C(N)O3)c(C)s1 (stereo not drawn),-2.19%

row,Compound,"hERG current change (%, negative = inhibition) at 10uM"
1,CCOc1ccc(Cn2nnc(C(=O)NCc3ccc(OC)cc3)c2N)cc1,6.41%
2,C#CCOCCOCCOCCNc1nc(N2CCN(C(=O)[C@H](Cc3ccc(O)cc3)n3cc([C@@H](N)C(C)CC)nn3)CC2)nc(N2CCN(C(=O)[C@H](Cc3cc4ccccc4[nH]3)n3cc([C@@H](N)CC(C)C)nn3)CC2)n1.Cl (stereo partly drawn),0.573%
3,O=C(Cn1cnc2c(NC(=O)OCc3ccccc3)ncnc21)NCCN1CCOCC1,1.26%
4,CC(C)(C)c1cc(C(=O)N/N=C/c2ccncc2)n[nH]1,-2.71%
5,O=C1CCC/C1=c1\s/c(=C\c2cccnc2)c(=O)n1-c1ccccc1,16.4%
6,Cc1c(C(=O)NCC2CCCO2)sc2nc(-c3ccc(F)cc3)cn12 (stereo not drawn),-29.7%
7,COCCN1CCN(Cc2nc(C3(c4ccc(C)cc4)CCCC3)no2)CC1,-9.3%
8,Cn1nccc1C(=O)N1CCc2c([nH]c3ccccc23)C1c1ccc(F)cc1 (stereo not drawn),-19.4%
9,O=C(COC(=O)Cc1ccc(F)cc1)NCCc1ccccc1,14.2%
10,CC1(C(=O)[O-])CCCC2(C)c3cc(O)ccc3CCC12.[Ba+2] (stereo not drawn),10.7%
11,COc1cccc(-n2ccnc2SCC(=O)N2CCCc3ccccc32)c1,-10%
12,O=C(CN1c2ccccc2S(=O)(=O)c2ccccc21)Nc1ccccc1F,4.69%
13,CCN(CC(=O)Nc1ccc(NC(C)=O)cc1)C(=O)CCCc1nc2ccccc2c(=O)[nH]1,14.3%
14,COc1ccc(C2=NOC(C(=O)NCc3ccccn3)C2)cc1OC (stereo not drawn),18.4%
15,O=C(Nc1ccc(F)cc1)C1CC(=O)n2c(nc3ccccc32)N1 (stereo not drawn),-8.08%
16,COc1ccc(C(C)=O)cc1CSc1ccc(S(=O)(=O)N2CCCCC2)cn1,-3.91%
17,COCCNC(=O)C(NC(=O)C1CCCCC1)C(C)C (stereo not drawn),10.3%
18,Cc1ccc(/C=C/C(=O)NC(=S)N2CCN(C)CC2)cc1,-20.5%
19,COc1ccc(-c2cc(C(=O)NCc3ccco3)no2)cc1OC,-2.86%
20,Cc1ccc(NC(=O)c2oc3ccccc3c2NC(=O)c2ccc3c(c2)OCO3)cc1,-4.41%
21,CCc1ccc(S(=O)(=O)NCC2(N3CCOCC3)CCCCC2)cc1,-34.8%
22,CC(C)C(=O)Nc1cccc(NC(=S)NC(=O)C(c2ccccc2)c2ccccc2)c1,-5.95%

row,Compound,"hERG current change (%, negative = inhibition) at 10uM"
1,Cc1ccc(N(CC(=O)N2CCOCC2)S(C)(=O)=O)cc1,16.7%
2,O=C(NN=C1CCCC1)c1ccccc1OCCOc1ccccc1,1.55%
3,Cc1cccnc1CN1CCN(Cc2nc(Cc3cccc(F)c3)no2)CC1,-29.5%
4,Cn1c2ccccc2c2c(C(=O)N3CCC4(CC3)OCCO4)cn(C3CCCCC3)c(=O)c21,-15.2%
5,COC(/C=C/Nc1ccc(C)cc1)=C(C#N)C#N,-38%
6,Cc1ccc(C2=NN(S(C)(=O)=O)C(c3ccc4c(c3)OCO4)C2)cc1 (stereo not drawn),-2%
7,CN(C(=O)C12CC3CC(CC(C3)C1)C2)C1(C)CCS(=O)(=O)C1 (stereo not drawn),-4.12%
8,CCOCCCn1c(=S)[nH]c2cc(C(=O)NC3CCCCC3C)ccc2c1=O (stereo not drawn),-1.79%
9,CC(=O)c1ccc(Sc2nnc(C)s2)c([N+](=O)[O-])c1,1.07%
10,Nc1nnc(SCC(=O)N2CCN(c3ccccc3)CC2)n1-c1ccccc1,15.2%
11,COc1ccccc1NC(=O)c1cc(N)cc(C(=O)Nc2ccccc2OC)c1,-50.6%
12,O=C(CCNS(=O)(=O)c1cccs1)Nc1ccccc1F,10.4%
13,NS(=O)(=O)c1cccc(NC(=O)C(Cc2ccccc2)NC(=O)c2ccccc2)c1 (stereo not drawn),3.2%
14,CCC(=O)Nc1cccc(C(=O)c2ccccc2)c1,-0.703%
15,Cc1cc2ccccn2c1C(=O)c1cccc(F)c1,-11.6%
16,COc1ccc(-c2c[n+]3c(n2-c2c(C)n(C)n(-c4ccccc4)c2=O)CCCCC3)cc1.[Br-],4.43%
17,CC1CCCCC1NC(=O)CCS(=O)(=O)c1ccc2c(c1)NC(=O)CS2 (stereo not drawn),-1.82%
18,Cc1csc(NC(=O)CSc2nc3ccccc3c3c2CCCC3)n1,16.4%
19,CCC1=NN(C(=O)Cc2ccc([N+](=O)[O-])cc2)C(O)(c2ccncc2)C1 (stereo not drawn),-11.9%
20,COc1ccccc1OCC(=O)NNC(=O)C1CCN(c2ncnc3sc(C)c(C)c23)CC1,10.5%
21,CCOC(=O)N1CCN(C(=O)Nc2ccc3nc(-c4ccccn4)c(-c4ccccn4)nc3c2)CC1,7.65%
